Where two headings read alike, the source gives them in different places.
Assays:
[1] = Liquid oral delivery of PYY[3-36] in rats (oral gavage, serum PYY[3-36] radioimmunoassay); details: oral gavage solution, 1 ml/kg
Method: SNAC monosodium salt, solid was dissolved in water. The pH of this solution was close to pH 7.5, so no pH adjustments were done. […] The final pH of these solutions was 7.5.
The pH was then lowered to 7.7 by adding HCl (5N). […] The final pH of these solutions varied between 7.5 and 7.6.
Each delivery agent compound (as the free acid or monosodium salts) was dissolved in water. The pH was adjusted to approximately 7.5 by adding HCl (5N) and NaOH (5N) as needed. […] The final pH of these solutions was approximately 7.5.
The typical dosing and sampling protocols were as follows. Male Sprague-Dawley rats weighing between 240-320 g were fasted up to a maximum 24 hours before the experiments and administered ketamine (44 mg/kg) and thorazine (1.5 mg/kg) by intramuscular injection before the test article administration. Afterwards, the anesthetized animals were administered the test article by oral gavage. A dosing group of five animals was administered one of the dosing solutions. For oral gavage (PO), an 11 cm Rusch 8 French catheter was adapted to a 1 ml syringe with a pipette tip. The syringe was filled with dosing solution by drawing the solution through the catheter, which was then wiped dry. The catheter was placed down the esophagus leaving 1 cm of tubing past the incisors. The dosing solution was administered by pressing the syringe plunger.
Blood samples were collected serially from the tail artery, or by cardiac puncture, typically at time=0, 15, 30, 45, 60 and 90 minutes. […] Results from the animals in each group were averaged for each time point.

[2] = Solid oral delivery of PYY[3-36] in feed restricted rats (serum PYY radioimmunoassay); type: in vivo, Male Sprague Dawley rats; details: 1 tablet per animal, PYY[3-36] 0.3 mg/kg
Method: An oral dosing tube was used.
Blood samples were collected serially from the tail artery, by cardiac puncture, or as in this case by retro-orbitally, typically at time=0, 15, 30, 60 and 90 minutes.

[3] = Rhesus monkeys, oral solid dose, PYY[3-36] 1 mg/tablet
From the text: Results from the animals in each group were averaged for each time point.

[4] = Delivery Agent 200 mg/kg, PYY[3-36] 0.3 mg/kg

With `COc1ccc(O)c(C(=O)NCCCCCCCC(=O)O)c1` [Delivery Agent 11, 8-(2-hydroxy-5-methoxybenzoylatnino)octanoic acid] the “Mean Peak Serum [PYY(3-36)] (pg/ml) ± SD” value [1, 4] was 871.484 ± 119.461 pg/mL and the “Mean serum peak of PYY (pg/ml) ± SD” value ([2]; Delivery Agent 100 mg/kg) was 2330.63 ± 963.7 pg/mL.

In the case of `O=C(O)CCCCCCCNC(=O)c1ccccc1O` [Delivery Agent 1, N-(8-[2-hydroxybenzoyl]-amino)caprylic acid], the “Mean Peak Serum [PYY(3-36)] (pg/ml) ± SD” value ([1]; Delivery Agent 100 mg/kg, PYY[3-36] 0.1 mg/kg) is reported as 233.03 ± 127.5 pg/mL, the “Mean Peak Serum [PYY(3-36)] (pg/ml) ± SD” value ([1]; Delivery Agent 100 mg/kg, PYY[3-36] 0.5 mg/kg) is reported as 235.75 ± 181.7 pg/mL and the “Mean Peak Serum [PYY(3-36)] (pg/ml) ± SD” value ([1]; Delivery Agent 200 mg/kg, PYY[3-36] 0.1 mg/kg) is reported as 313.14 ± 151.8 pg/mL. The “Mean Peak Serum [PYY(3-36)] (pg/ml) ± SD” value ([1]; Delivery Agent 200 mg/kg, PYY[3-36] 0.5 mg/kg) was 442.098 ± 78.4 pg/mL, the “Mean serum peak of PYY (pg/ml) ± SD” value ([2]; Delivery Agent 100 mg/kg) was 830.24 ± 341.32 pg/mL and the “Mean serum peak of PYY (pg/ml) ± SD” value ([3]; 1 tablet per animal, Delivery Agent 50 mg/tablet, per animal 50/1 mg) was 969 ± 60.72 pg/mL. The “Mean serum peak of PYY (pg/ml) ± SD” value ([3]; 1 tablet per animal, Delivery Agent 100 mg/tablet, per animal 100/1 mg) was 757.8 ± 441.02 pg/mL and the “Mean serum peak of PYY (pg/ml) ± SD” value ([3]; 2 tablet per animal, Delivery Agent 50 mg/tablet, per animal 100/2 mg) was 1030.9 ± 76.88 pg/mL.

With `OCCN(CCO)CCCCCCCCOc1ccccc1O` [Delivery Agent 15, 8-(2-Hydroxyphenoxy)octyl-diethanolamine] the “Mean Peak Serum [PYY(3-36)] (pg/ml) ± SD” value [1, 4] was 705.106 ± 75.906 pg/mL.

With `O=C(O)CCCCCCCOc1ccc(O)cc1` [Delivery Agent 17, 8-(4-hydroxyphenoxy)octanoate] the “Mean serum peak of PYY (pg/ml) ± SD” value ([2]; Delivery Agent 50 mg/kg, listed as 17) was 581.62 ± 236.94 pg/mL.

From patent publication US20050009748A1, “Compositions for delivering peptide YY and PYY agonists” (Emisphere Technologies, Inc., priority 2003, published 2005)
